The source of these data is the antibiotic and cytotoxicity screens of Wong et al. (2023).

This is one part of the list.

The assay deals with S. aureus RN4220. Kind of assay: growth inhibition call (relative growth <= 0.2). The settings on record: 50 µM.
Regarding `CC(C)CCC[C@@H](C)[C@H]1CC[C@@]2(C)C3=C(CC[C@]12C)[C@@]1(C)CC[C@H](OC(=O)CCl)C(C)(C)[C@@H]1CC3`, the growth inhibition call was “inactive”.

Turning to `COc1ccc(C#Cc2ccc3c(c2)O[C@@H](CN(C)S(=O)(=O)c2ccccc2F)[C@@H](C)CN([C@H](C)CO)S3(=O)=O)cc1`, the growth inhibition call was “inactive”. The entry for `C[C@H](CO)N1C[C@H](C)[C@H](CN(C)S(=O)(=O)c2cn(C)cn2)Oc2ccc(NS(=O)(=O)c3ccc(F)cc3)cc2CC1=O` is “inactive”. The result for `O=c1[nH]ncc2ccccc12` reads “inactive”; that for `CO[C@@H](CN(C)C(=O)Nc1ccc(C(F)(F)F)cc1)[C@@H](C)CN(Cc1ccccc1Cl)[C@@H](C)CO`, “inactive”. The entry for `C[C@H]1CN([C@@H](C)CO)C(=O)Cc2cc(NC(=O)Nc3cccc4ccccc34)ccc2O[C@H]1CN(C)Cc1ccc(Cl)c(Cl)c1` is “inactive”; for `Cc1cc(=O)[nH]c(=S)[nH]1` it is “inactive”. Turning to `C[C@H](CO)N1C[C@H](C)[C@@H](CN(C)C(=O)Nc2ccc3c(c2)OCO3)OCCCC[C@H](C)Oc2ccc(NC(=O)Nc3ccc(C(F)(F)F)cc3)cc2C1=O`, the growth inhibition call was “inactive”. `O=C1CCSc2ccc(F)cc21`: the growth inhibition call was “inactive”.

Take `C[C@H](O)C#Cc1ccc2c(c1)O[C@H](CN(C)C(=O)c1ccncc1)[C@H](C)CN([C@H](C)CO)S2(=O)=O`: the growth inhibition call was “inactive”. The result for `Cn1c(=O)c2[nH]cnc2n(C)c1=O` reads “inactive”; that for `C[C@H]1CN([C@@H](C)CO)C(=O)c2cccc(NC(=O)CCCCCC(=O)Nc3ccccc3N)c2O[C@@H]1CN(C)Cc1ccc(-c2ccccc2)cc1`, “inactive”; that for `CN(C)C(=O)CN1C[C@]23CN(Cc4cnn(C)c4)C[C@@H](C[C@@H]2S1(=O)=O)O3`, “inactive”.
